Among all 48,000 compounds or so, about 450 (0.94%) were called active. About 19% were inconclusive and are not listed. Calls come from the whole dose curve; as a rule, active = well fitted inhibition curve with a large enough effect; inconclusive = small, poorly fitted or top-dose-only effect; inactive = no such curve, though single readings can be large or run the other way. This is one part of the list.
Assay: Primary qHTS for Identification of Small Molecule Inhibitors of Huntingtin Promoter Activity; note: nearly all actives have a fitted effect of over 50% in size
Details: HEK293 HTT promoter firefly luciferase reporter (activity 0% = vehicle and -100% = no light), 24 h; series mostly up to 57.5 µM; activity change, negative = inhibition: at the top concentration
How it was run: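 HEK293 luciferase promoter-reporter cells (2,500/well) plated 24 h, then compounds added at up to 57.5 uM final for 24 h at 37 °C. Firefly luminescence by Dual-Glo, normalized to vehicle (0%) and zero RLU (-100%).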

Activity change, negative = inhibition, inactive:
COc1ccccc1N1CCN(S(=O)(=O)c2ccc(-c3coc(C)n3)cc2)CC1 -5.75%, Cc1ccc(N2CCN(C(=O)c3cn(C)c4ccc(S(=O)(=O)N5CCC(C)CC5)cc4c3=O)CC2C)cc1 (stereo not given) 71.3% [at 11.5 µM], COc1ccc2c(c1)CC(C(=O)Nc1ccc(Br)c(C)c1)CO2 (stereo not given) -29.2%, CCN(C(=O)CSc1nc(-c2ccc(C(C)C)cc2)no1)c1ccccc1 -28.4%, COc1ccc(C(=O)NCC(=O)OCc2cc(=O)n3nc(C4CCCCC4)sc3n2)cc1 -4.03%, Cc1ccccc1-c1nc(CS(=O)(=O)CC(=O)NCCCN2CCN(C)CC2)c(C)o1 -17%, Cc1c(N(C)CS(=O)(=O)O)c(=O)n(-c2ccccc2)n1C 7.18%, COc1ccc(NC(=O)CSc2nncn3c2cc2occc23)c(OC)c1 5.33%, COc1ccc(-n2nnc(-c3nc(-c4ccc5c(c4)OCO5)no3)c2C)cc1Cl -2.17%, CCOC(=O)c1ccc(NC(=O)CCc2c(C)nc3cc(-c4ccc(OC)cc4OC)nn3c2C)cc1 -15.6%, CC(C)Oc1ccc(C(=O)N2CCC(c3nc4ccccc4s3)CC2)cc1 -20.1%, COc1cc(C(=O)Nc2ccc(-c3nc4cc(C)c(C)cc4o3)cc2)cc(OC)c1OC -9.64% [at 11.5 µM], CC(=O)Nc1ccc(S(=O)(=O)N2CCC(n3c(C)nc4cccnc43)CC2)cc1 -27.3%, CCC(C)NC(=O)Cn1c(=O)n(-c2cc(OC)cc(OC)c2)c(=O)c2ccccc21 (stereo not given) -10.2%, Cc1ccc2c(CNCCc3ccco3)c(C(=O)O)n(Cc3ccc(F)cc3)c2c1 -18.9%, CCOc1ccc(CN(CCc2ccc3c(c2)OCO3)Cc2cc(OC)cc(OC)c2)cc1 -28.5%, COc1ccc(NC(=O)CCCc2nnc3n(C(C)C)c(=O)c4sccc4n23)cc1Cl -5.68%, O=C(CSc1nccn1Cc1ccco1)Nc1ccc(OC(F)(F)F)cc1 24.2%, Cc1cc(=O)[nH]c2nnc(SCc3cccc(C(F)(F)F)c3)n12 -3.74%, CCOc1ccc(NC(=O)Cn2cc(C(=O)C3CC3)c3ccccc32)cc1 -6.97%, COc1ccc(C(=O)Nc2ccc(-c3nc4cc(C)ccc4o3)c(O)c2)cc1 1.21%, COc1cc(Cl)c(NC(=O)CN2C(=O)c3cccnc3Sc3ccccc32)c(OC)c1 -23.7%, CC(C)c1ccc(NC(=O)Cn2nnc(C(=O)NCCc3ccccc3)c2N)cc1 -13.9%, Cc1nc(N2CCOCC2)c2c(C(=O)N3CCN(c4cccc(C(F)(F)F)c4)CC3)c(C)oc2n1 -12.5%, Cc1cccc2nc(-c3ccc(Cl)s3)c(Nc3ccc4c(c3)OCCO4)n12 4.58%, COc1ccc(NC(=O)C(Cc2ccccc2)NS(=O)(=O)c2ccc3c(c2)oc(=O)n3C)c(OC)c1 (stereo not given) -24%, Cc1ccc(OCC(=O)OCc2cc(=O)n3ccsc3n2)cc1C 2.61%, COc1ccccc1N1CCN(c2ncc3c(n2)CCN(Cc2ccccc2C)C3)CC1 -6.93%, Cc1nc2ccc(S(=O)(=O)NCC(=O)NCc3ccc(Cl)cc3)cc2s1 -19.6%, COc1ccc(OC(=O)c2cc(-c3ccc4c(c3)OCCO4)on2)cc1 -3.16%, Cc1ccc(C)c(NC(=O)CSc2cn(CC(=O)N3CCCCC3)c3ccccc23)c1 -8.34%, CCOc1ccc(NC(=O)Cn2c(=O)nc(-c3ccccc3)c3ccccc32)cc1 -7.74%, Brc1ccc(-c2cn3cc(Cc4ccccc4)sc3n2)cc1 34.9%, CC1CCN(S(=O)(=O)c2ccc3[nH]ccc3c2)CC1 -32.2%, CCOC(=O)c1ccc(NC(=O)c2noc3c2CCCC3)cc1 -20.1%, O=C1NC(NS(=O)(=O)c2ccccc2)(C(F)(F)F)C(=O)N1CCc1ccccc1 (stereo not given) -18.3%, CCOc1ccc(-c2cc3nc(C4CCN(C(=O)OC(C)(C)C)CC4)c(C(=O)Nc4cccc(Cl)c4C)cn3n2)cc1 -20.1%, Cn1cc(CCCC(=O)NCc2ccc(F)cc2)c2ccccc21 -13.8%, CC(NCCC(c1ccccc1)c1ccccc1)c1ccccc1 (stereo not given) -22%, O=C(CCC(=O)N1CCOc2ccccc21)NCc1cccs1 -3.09%, Cc1ccc2[nH]c3c(=O)n(CC(=O)N4CCN(c5ccccc5F)CC4)ncc3c2c1 3.77%, Cc1cc(N2CCN(C)CC2)nc2ccc(NC(=O)Nc3ccc(F)cc3)cc12 24.8%, O=S(=O)(NCCc1nnc2ccc(SCc3cccc(Cl)c3)nn12)c1ccccc1 -20.6%, COc1ccc(Cn2c(CNC(=O)Cc3ccc(OC)c(OC)c3)nc3cccnc32)cc1 -3.61%, O=C(Cn1c(=O)n(Cc2ccco2)c(=O)c2sc3ccccc3c21)Nc1ccc(F)cc1F -13.6%, COc1ccc(-c2cc(C(F)(F)F)c(C#N)c(SCC(=O)Nc3cccc(C)c3)n2)cc1 -11.9%, Cc1ccc(Cn2c(SCc3ccc(C(=O)O)cc3)nc3cccnc32)cc1 -7.09%, O=c1[nH]c(=O)n(C2CCCO2)cc1F (stereo not given) -10.2% [at 116 µM], CSc1ncc(Cl)c(C(=O)Nc2c(C(=O)c3ccc(C)cc3)oc3ccccc23)n1 -10.5%, CCC(C)n1c(=O)c2sccc2n2c(CCCC(=O)Nc3ccc(F)cc3)nnc12 (stereo not given) -20.6%, Cc1ccccc1-n1c(SCC(=O)c2ccccc2)nnc1-c1ccc(F)cc1 -36.1%, Cc1ccc(SCC(=O)Nc2ccc(O)c(-c3nc4cc(C)ccc4o3)c2)cc1 72.4%, COc1ccc(NC(=O)c2ccco2)cc1NC(=O)c1cccc(C)c1OC -29.2%, Cc1ccc2c(CN3CCN(c4ccc(Cl)cc4)CC3)cc(=O)oc2c1 3.55%, Cc1ccc(CNC(=O)CCCCCn2c(=O)c3sccc3n(CC(=O)C(C)(C)C)c2=O)cc1 -21.4%, Cc1ccc(NC(=O)CSc2nc(=O)n(Cc3ccncc3)c3c2CCC3)cc1Cl -12.8%, COc1ccc(Nc2ncc(C(=O)Nc3cccc(OC)c3)c3ccccc23)cc1 15.3%, Cc1ccc(Cl)cc1N(C)C(=O)c1sc2nc3n(c(=O)c2c1C)CCCC3 -29.5%, COC(=O)c1cc(NC2(c3ccccc3)C(=O)c3ccccc3C2=O)cc(C(=O)OC)c1 -10.2%, CC(C)(C)c1ccccc1NC(=O)c1cnn2c(C(F)F)cc(-c3ccccc3)nc12 -6.48%, COc1ccccc1NC(=O)CSc1oc(-c2ccc(F)cc2)nc1S(=O)(=O)c1ccc(Br)cc1 -10.9%, Cn1c(=O)c2c(SCC(=O)Nc3ccc(F)cc3F)nc(C3CCCC3)nc2n(C)c1=O -1.05%, CCOC(=O)c1cnc(N2CCN(c3ccc(C)cc3C)CC2)c2ccccc12 -16%, CSc1cccc(NC(=O)CN2C(=O)COc3ccc(S(=O)(=O)N4CCC(C)CC4)cc32)c1 -14.2%, Cc1ccc(C)c(NC(=O)Cn2ccn(-c3ccc(F)cc3)c(=O)c2=O)c1 -15.2%, C[C@]12CC[C@@H]3c4ccc(O)cc4C[C@@H](CCCCCCCCCS(=O)CCCC(F)(F)C(F)(F)F)[C@H]3[C@H]1CC[C@H]2O (stereo not given in full) -21.1%, OC1C(O)C(O)C(O)C(O)C1O (stereo not given) -1.18%, Cc1ccc(-c2nc3c4ccccc4n(CC(=O)N4CCN(c5ccc(F)cc5)CC4)c(=O)n3n2)cc1 11.5%, CCC(C)NC(=O)Cn1c(-c2cccs2)cc2cc(Cl)ccc21 (stereo not given) -13%, CCOC(=O)c1c(NC(=O)c2cc(-c3ccc(Cl)cc3)on2)sc(C)c1C -4.09%, Cc1cc(N2CCC(C(=O)NCCC(C)C)CC2)n2nc(C)c(-c3ccc(Cl)cc3)c2n1 -11.3%, Cc1ccc(CN(C(=O)c2ccccc2[N+](=O)[O-])c2ccccn2)cc1 -24.3%, CC1CN(C(=O)CCC(=O)NCc2ccccc2)c2cc(Cl)ccc2O1 (stereo not given) -19.2%, CC(C)(C)NC(=O)c1ccc2nc(CCc3ccccc3)oc2c1 20.4%, Cc1cc(C)cc(N2C(=O)CCSC23C(=O)N(Cc2ccccc2)c2ccccc23)c1 (stereo not given) -6.79%, CCOc1ccc(CCNC(=O)c2ccc3c(c2)sc2nc(-c4ccc(F)cc4)cn23)cc1OCC -22.5%, Cc1ccc(C(CC(=O)Nc2ccc(F)c(Cl)c2)N2Cc3ccccc3C2=O)cc1 (stereo not given) -7.01%, COc1cccc(NC(=O)N(Cc2c[nH]c3ccccc23)C2CCCCC2)c1 20.8%, CC(C)c1ccc(NC(=O)CCn2c(=O)c3cccn3c3ccccc32)cc1 -2.72%, Cc1ccc(N2CC(NC(=O)C3CC3)CC2=O)cc1C (stereo not given) -20.1%, CCOC(=O)c1ccn(-c2nc(-c3cccc(OC)c3)cc(C(F)(F)F)n2)n1 -20.8%, Cc1nc2sccn2c(=O)c1S(=O)(=O)Nc1ccc(N2CCN(C(=O)C(C)C)CC2)cc1 -31%, COc1cc(C(=O)Nc2nonc2-c2ccc(Cl)cc2)cc(OC)c1OC -25.2%, Cc1cccc(N2CCN(S(=O)(=O)c3c(C(=O)N4CCC(C)CC4)c(C)n(C)c3C)CC2)c1C -38.2%, Cc1ccc(NC(=O)Cn2cnc3sc(C)c(S(=O)(=O)N4CCN(c5ncccn5)CC4)c3c2=O)cc1F -10.4%, COC(=O)c1ccc(NC(=O)CC2C(=O)N(c3ccccc3)C(=O)N2Cc2ccco2)cc1 (stereo not given) -18.7%, COc1ccc(NC(=O)CSC2=Nc3ccccc3C3=NC(CC(=O)NCc4ccc5c(c4)OCO5)C(=O)N23)cc1 (stereo not given) 0%, CCOc1ccc(C(c2c(O)cc(C)n(Cc3ccco3)c2=O)N2CCN(c3ccccc3)CC2)cc1 (stereo not given) -7.46%, CCCc1cnc2c(c1SCC(=O)Nc1ccccc1F)c(=O)n(C)c(=O)n2C -33.8%, CCc1nn(Cc2c(C)cc(C)cc2C)c(=O)c2cc3cc(C)ccc3n12 -8.77%, CCCC12CN3CC(CCC)(CN(C1)C3c1c(C)[nH]c(=O)[nH]c1=O)C2=O (stereo not given) -7.85%, COc1ccc(C)cc1NC(=O)CN1C(=O)COc2ccc(S(=O)(=O)NC3CCCC3)cc21 -7.68%, CCOc1ccccc1NC(=O)c1nn(C)c2c1CSc1ccccc1-2 -8.88%, CCOc1ccc(-c2csc(-c3c(N)c(C(=O)c4ccc5c(c4)OCO5)n4ccccc34)n2)cc1 -0.164%, CCOC(=O)c1cc(S(=O)(=O)Nc2ccccc2OCC)[nH]n1 -4.98%

— PubChem BioAssay AID1508623 (National Center for Advancing Translational Sciences (NCATS), 2021)
